The supplement of paper PMC4604168 (melanoma cell lines)
This is one part of the list. Many values rest on one well or one pass, so single values are uncertain.

Experiments:
Test in all cases: cell count relative to DMSO control; melanoma cells; higher = more viable cells
Settings in all cases: library dose: standard library concentration; 72 h
A101D = tested on: A101D
A2058 = tested on: A2058
A375 = tested on: A375
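Note: cells treated in 1,536-well plates, then fixed and DAPI-stained, with nuclei counted from automated high-throughput microscope images.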

| Compound | cell count (A101D) [%] | cell count (A2058) [%] | cell count (A375) [%] |
| --- | --- | --- | --- |
| Cc1cc(Nc2cc(N3CCN(C)CC3)nc(/C=C/c3ccccc3)n2)n[nH]1 + Cn1cncc1[C@@](N)(c1ccc(Cl)cc1)c1ccc2c(c1)c(-c1cccc(Cl)c1)cc(=O)n2C [tipifarnib] (first compound 0.2 µM, partner dose 0.05 µM) | 69.2 | 80.1 | 74.6 |
| Cc1cc(Nc2cc(N3CCN(C)CC3)nc(/C=C/c3ccccc3)n2)n[nH]1 + Cn1c(=O)n(-c2ccc(C(C)(C)C#N)cc2)c2c3cc(-c4cnc5ccccc5c4)ccc3ncc21 [NVP-BEZ235] (first compound 0.2 µM, partner dose 0.02 µM) | 53.3 | 68.2 | 80.1 |
| Cc1cn(-c2cc(NC(=O)c3ccc(C)c(Nc4nccc(-c5cccnc5)n4)c3)cc(C(F)(F)F)c2)cn1 [nilotinib] + C=CCNC1=C2C[C@@H](C)C[C@H](OC)[C@H](O)[C@@H](C)/C=C(\C)[C@H](OC(N)=O)[C@@H](OC)/C=C\C=C(/C)C(=O)NC(=CC1=O)C2=O [Tanespimycin] (first compound 1 µM, partner dose 0.01 µM) | 87.2 | 95.6 | 108 |
| Cc1cc(Nc2cc(N3CCN(C)CC3)nc(/C=C/c3ccccc3)n2)n[nH]1 + Nc1cccc2c1CN(C1CCC(=O)NC1=O)C2=O [lenalidomide] (first compound 0.2 µM, partner dose 5 µM) | 74.6 | 98.9 | 95 |
| Cc1cc(Nc2cc(N3CCN(C)CC3)nc(/C=C/c3ccccc3)n2)n[nH]1 + O=C(O)c1ccc(-c2c[nH]c3ncc(-c4ccccc4)cc23)cc1C1CCCC1 [GSK650394] (first compound 0.2 µM, partner dose 0.8 µM) | 77.5 | 83.6 | 78.1 |
| Cn1c(=O)n(-c2ccc(C(C)(C)C#N)cc2)c2c3cc(-c4cnc5ccccc5c4)ccc3ncc21 + Nc1ccn([C@@H]2O[C@H](CO)[C@@H](O)C2(F)F)c(=O)n1 [gemcitabine] (first compound 0.02 µM, partner dose 0.002 µM) | 72.5 | 34.7 | 103 |
| Cc1cc(Nc2cc(N3CCN(C)CC3)nc(/C=C/c3ccccc3)n2)n[nH]1 + C[C@@H]1CCN(C(=O)CC#N)C[C@@H]1N(C)c1ncnc2[nH]ccc12 [CP690550] (first compound 0.2 µM, partner dose 5 µM) | 84.8 | 86.8 | 76.2 |
| Cc1cc(Nc2cc(N3CCN(C)CC3)nc(/C=C/c3ccccc3)n2)n[nH]1 + NC1(c2ccc(-c3nc4ccn5c(=O)[nH]nc5c4cc3-c3ccccc3)cc2)CCC1 [MK2206] (first compound 0.2 µM, partner dose 2 µM) | 68 | 69.9 | 98 |
| Cc1cn(-c2cc(NC(=O)c3ccc(C)c(Nc4nccc(-c5cccnc5)n4)c3)cc(C(F)(F)F)c2)cn1 [nilotinib] + Clc1ccc(Nc2nnc(Cc3ccncc3)c3ccccc23)cc1 [vatalanib] (first compound 1 µM, partner dose 10 µM) | 83.1 | 80.5 | 103 |
| Cc1cn(-c2cc(NC(=O)c3ccc(C)c(Nc4nccc(-c5cccnc5)n4)c3)cc(C(F)(F)F)c2)cn1 [nilotinib] + COc1ccc(C2=N[C@@H](c3ccc(Cl)cc3)[C@@H](c3ccc(Cl)cc3)N2C(=O)N2CCNC(=O)C2)c(OC(C)C)c1 [Nutlin-3] (first compound 1 µM, partner dose 0.5 µM) | 64.7 | 103 | 83.2 |
| CC(C)C[C@H](NC(=O)[C@H](Cc1ccccc1)NC(=O)c1cnccn1)B(O)O [Bortezomib] + CC(=O)c1c(C)c2cnc(Nc3ccc(N4CCNCC4)cn3)nc2n(C2CCCC2)c1=O [palbociclib] (first compound 0.005 µM, partner dose 0.2 µM) | 12.5 | 13.1 | 83.2 |
| Cn1c(=O)n(-c2ccc(C(C)(C)C#N)cc2)c2c3cc(-c4cnc5ccccc5c4)ccc3ncc21 + Cc1nc(Nc2ncc(C(=O)Nc3c(C)cccc3Cl)s2)cc(N2CCN(CCO)CC2)n1 [dasatanib] (first compound 0.02 µM, partner dose 0.02 µM) | 69.9 | 48.2 | 71.4 |
| Cc1cc(Nc2cc(N3CCN(C)CC3)nc(/C=C/c3ccccc3)n2)n[nH]1 + Nc1nc(F)nc2c1ncn2[C@@H]1O[C@H](CO)[C@@H](O)[C@@H]1O [fludarabine] (first compound 0.2 µM, partner dose 1 µM) | 68 | 78.2 | 29.2 |
| Cn1c(=O)n(-c2ccc(C(C)(C)C#N)cc2)c2c3cc(-c4cnc5ccccc5c4)ccc3ncc21 + COc1cc(Nc2ncc(F)c(Nc3ccc4c(n3)NC(=O)C(C)(C)O4)n2)cc(OC)c1OC [Tamatinib] (first compound 0.02 µM, partner dose 2 µM) | 59 | 59.7 | 84.7 |
| Cc1cc(Nc2cc(N3CCN(C)CC3)nc(/C=C/c3ccccc3)n2)n[nH]1 + COc1cc2ncnc(Nc3ccc(Oc4ccccc4)cc3)c2cc1OC [SrcI1] (first compound 0.2 µM, partner dose 10 µM) | 51.9 | 70.2 | 108 |
| Cc1cc(Nc2cc(N3CCN(C)CC3)nc(/C=C/c3ccccc3)n2)n[nH]1 + CN(NC(=O)CC(=O)NN(C)C(=S)c1ccccc1)C(=S)c1ccccc1 [STA4783] (first compound 0.2 µM, partner dose 0.03 µM) | 65.2 | 10.5 | 95.1 |
| CC(C)C[C@H](NC(=O)[C@H](Cc1ccccc1)NC(=O)c1cnccn1)B(O)O [Bortezomib] + O=C(CCCCCCC(=O)Nc1ccccc1)NO [vorinostat] (first compound 0.005 µM, partner dose 0.4 µM) | 9.6 | 19.4 | 77.9 |
| Cc1cn(-c2cc(NC(=O)c3ccc(C)c(Nc4nccc(-c5cccnc5)n4)c3)cc(C(F)(F)F)c2)cn1 [nilotinib] + CC(=O)O[C@@]12CO[C@@H]1C[C@H](O)[C@@]1(C)C(=O)[C@H](O)C3=C(C)[C@@H](OC(=O)[C@H](O)[C@@H](NC(=O)OC(C)(C)C)c4ccccc4)C[C@@](O)([C@@H](OC(=O)c4ccccc4)[C@H]21)C3(C)C [Docetaxel] (first compound 1 µM, partner dose 0.0005 µM) | 49.2 | 8.71 | 61.9 |
| Cc1cn(-c2cc(NC(=O)c3ccc(C)c(Nc4nccc(-c5cccnc5)n4)c3)cc(C(F)(F)F)c2)cn1 [nilotinib] + C[C@@H](N)c1ccc(C(=O)Nc2ccnc3[nH]ccc23)cc1 [RKI983] (first compound 1 µM, partner dose 2 µM) | 71 | 62.2 | 96.6 |
| Cc1cc(Nc2cc(N3CCN(C)CC3)nc(/C=C/c3ccccc3)n2)n[nH]1 + Clc1ccc(Nc2nnc(Cc3ccncc3)c3ccccc23)cc1 [vatalanib] (first compound 0.2 µM, partner dose 10 µM) | 86.1 | 76.2 | 96.3 |
| Cc1cc(Nc2cc(N3CCN(C)CC3)nc(/C=C/c3ccccc3)n2)n[nH]1 + CC(C)C[C@H](NC(=O)[C@H](Cc1ccccc1)NC(=O)c1cnccn1)B(O)O [Bortezomib] (first compound 0.2 µM, partner dose 0.005 µM) | 15.4 | 12.3 | 80 |
| CC(C)C[C@H](NC(=O)[C@H](Cc1ccccc1)NC(=O)c1cnccn1)B(O)O [Bortezomib] + Cc1nc(Nc2ncc(C(=O)Nc3c(C)cccc3Cl)s2)cc(N2CCN(CCO)CC2)n1 [dasatanib] (first compound 0.005 µM, partner dose 0.02 µM) | 20 | 12.4 | 69.3 |
| Cc1cn(-c2cc(NC(=O)c3ccc(C)c(Nc4nccc(-c5cccnc5)n4)c3)cc(C(F)(F)F)c2)cn1 [nilotinib] + Nc1cccc2c1CN(C1CCC(=O)NC1=O)C2=O [lenalidomide] (first compound 1 µM, partner dose 5 µM) | 98.4 | 119 | 127 |
| Cn1c(=O)n(-c2ccc(C(C)(C)C#N)cc2)c2c3cc(-c4cnc5ccccc5c4)ccc3ncc21 + C[C@@H]1CCN(C(=O)CC#N)C[C@@H]1N(C)c1ncnc2[nH]ccc12 [CP690550] (first compound 0.02 µM, partner dose 5 µM) | 78.4 | 89 | 89.2 |
| Cc1cn(-c2cc(NC(=O)c3ccc(C)c(Nc4nccc(-c5cccnc5)n4)c3)cc(C(F)(F)F)c2)cn1 [nilotinib] + Nc1ccn([C@@H]2O[C@H](CO)[C@@H](O)C2(F)F)c(=O)n1 [gemcitabine] (first compound 1 µM, partner dose 0.002 µM) | 99.9 | 92.9 | 123 |
| CC(C)C[C@H](NC(=O)[C@H](Cc1ccccc1)NC(=O)c1cnccn1)B(O)O [Bortezomib] + CO[C@@H]1[C@H](N(C)C(=O)c2ccccc2)C[C@H]2O[C@]1(C)n1c3ccccc3c3c4c(c5c6ccccc6n2c5c31)C(=O)NC4 [Midostaurin] (first compound 0.005 µM, partner dose 0.4 µM) | 6.74 | 8.82 | 72.4 |
| COc1ccc(C2=N[C@@H](c3ccc(Cl)cc3)[C@@H](c3ccc(Cl)cc3)N2C(=O)N2CCNC(=O)C2)c(OC(C)C)c1 [Nutlin-3] + CN(c1ncccc1CNc1nc(Nc2ccc3c(c2)CC(=O)N3)ncc1C(F)(F)F)S(C)(=O)=O [PF562271] (first compound 0.5 µM, partner dose 0.4 µM) | 58.7 | 74.6 | 65.1 |
